{"source": "PubChem BioAssay AID485294", "about": "(National Center for Advancing Translational Sciences (NCATS), 2010)", "note": "Screen size: about 370,000 compounds; about 150 (0.041%) were called active. This list was built around the results that the source calls inconclusive (neither active nor inactive); the mix of calls is not that of the screen. Calls come from the whole dose curve; as a rule, active = well fitted inhibition curve with a large enough effect; inconclusive = small, poorly fitted or top-dose-only effect; inactive = flat fitted curve, though single readings scatter. No potency is given beside an inconclusive call; the fits are too rough. Potency is the fitted concentration of half-maximal effect; tags give direction and shape of the fitted curve."}
{"target": "Beta-lactamase (Escherichia coli (strain K12)) (UniProt P00811)", "sequence (P00811 whole entry, looked up)": "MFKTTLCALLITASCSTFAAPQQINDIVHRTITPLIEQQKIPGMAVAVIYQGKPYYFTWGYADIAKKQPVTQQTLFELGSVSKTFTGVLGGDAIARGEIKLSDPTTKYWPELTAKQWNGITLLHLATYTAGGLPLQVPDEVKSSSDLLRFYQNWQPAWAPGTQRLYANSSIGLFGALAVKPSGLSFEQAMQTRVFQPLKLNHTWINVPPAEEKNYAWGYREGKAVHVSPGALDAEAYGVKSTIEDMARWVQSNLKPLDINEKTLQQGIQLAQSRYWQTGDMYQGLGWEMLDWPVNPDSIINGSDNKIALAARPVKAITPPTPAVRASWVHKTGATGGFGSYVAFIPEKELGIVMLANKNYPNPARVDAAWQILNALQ", "test": "qHTS Inhibitors of AmpC Beta-Lactamase (assay with detergent); note: nearly all actives have a fitted effect of over 25% in size", "conditions": "AmpC hydrolysis of nitrocefin, absorbance 480 nm, 0.01% Triton; series mostly up to 114 µM", "in_short": "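20 mM phosphate pH 7.0 + 0.01% (detergent screen) or 0.0001% Triton X-100; 5.3 nM AmpC reagent; cpd preinc 15 min RT; nitrocefin (800 uM stock) to start; A480 q20 s × 4 min; Activity was normalised to no-enzyme and no-compound control wells.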"}
{"molecule": "CC(C)=CCC/C(C)=C/C=N/NC(=O)c1cccc([N+](=O)[O-])c1", "Potency": "inconclusive [inhibitor, single point]"}
{"molecule": "O=C(Cc1ccc(-c2ccccc2)cc1)N1CCOCC1", "Potency": "inconclusive [inhibitor, full curve]"}
{"molecule": "COc1ccccc1/C=N/Nc1nccnc1Cl", "Potency": "inactive"}
{"molecule": "Cc1ccc2c(c1)sc1nc(=O)n(-c3ccc(Cl)cc3)c(=O)n12", "Potency": "inactive"}
{"molecule": "O=C1NC(=O)C2C1C(c1ccc([N+](=O)[O-])cc1)=NN2Cc1ccccc1", "note": "(stereo unspecified)", "Potency": "inconclusive [inhibitor, full curve, poor fit]"}
{"molecule": "C/C(=N\\NC(=O)c1cc2ccccc2cc1O)c1cc2ccccc2o1", "Potency": "inactive"}
{"molecule": "O=C(C[n+]1cc(-c2ccccc2)n2c1CCC2)Nc1nc(-c2ccc(F)cc2)cs1", "Potency": "inactive"}
{"molecule": "CCc1ccc(OCC(=O)OCC(=O)c2c(N)n(C)c(=O)n(C)c2=O)cc1", "Potency": "inconclusive [inhibitor, single point]"}
{"molecule": "Cc1ccc(C(=O)NCCN2CCOCC2)cc1C", "Potency": "inconclusive [inhibitor, full curve, poor fit]"}
{"molecule": "CCOC(=O)c1noc2ncnc(Nc3ccc(C)c(F)c3)c12", "Potency": "inactive"}
{"molecule": "O=C(Nc1ccncc1)Nc1ccc(Cl)cc1", "Potency": "inconclusive [inhibitor, full curve, poor fit]"}
{"molecule": "O=C1c2ccccc2C(=O)N1CCCc1c[nH]c2ccc(Cl)cc12", "Potency": "inactive"}
{"molecule": "CN(C)c1ccc(NC(=O)CC(NCc2ccccn2)C(=O)O)cc1", "note": "(stereo unspecified)", "Potency": "inconclusive [inhibitor, partial curve, poor fit]"}
{"molecule": "CN(C)C(=O)Oc1ccc(Br)cc1C(=O)Nc1ccc(F)c(Cl)c1", "Potency": "inconclusive [inhibitor, single point]"}
{"molecule": "COc1ccc(S(=O)(=O)Nc2cccc(F)c2C)cc1C(=O)N1CCOCC1", "Potency": "inconclusive [inhibitor, full curve, poor fit]"}
{"molecule": "COc1ccc(/C=N/NC(=O)CN2CCCc3ccccc32)c(OC)c1", "Potency": "inconclusive [inhibitor, full curve, poor fit]"}
{"molecule": "CCN1CCN(C(CNS(=O)(=O)c2ccc(Cl)cc2)c2ccccc2)CC1", "note": "(stereo unspecified)", "Potency": "inconclusive [inhibitor, full curve, poor fit]"}
{"molecule": "Cc1cccc(-c2nc3c(c(SCC(=O)N(C)C)n2)CCCC3)c1", "Potency": "inconclusive [inhibitor, single point]"}
{"molecule": "Cc1[nH]c2ccccc2c1SCC(=O)N1CCN(c2ccccc2)CC1", "Potency": "inconclusive [inhibitor, full curve, poor fit]"}
{"molecule": "NC(=O)c1ccc(-c2ccc(Br)cc2)o1", "Potency": "inconclusive [inhibitor, single point]"}
{"molecule": "COc1ccc(-c2nn(-c3ccccc3)cc2/C=C(\\C#N)S(=O)(=O)c2ccccc2)cc1OC", "Potency": "inconclusive [inhibitor, full curve, poor fit]"}
{"molecule": "CCOC(=O)c1sc(NC(=O)c2cccc(S(=O)(=O)N3CCc4ccccc43)c2)c(C#N)c1C", "Potency": "inconclusive [inhibitor, single point]"}
{"molecule": "CCNC(=O)N1CCN(CCCC(c2ccc(F)cc2)c2ccc(F)cc2)CC1", "Potency": "inconclusive [inhibitor, full curve]"}
{"molecule": "COc1ccc(N2CCN(C(=O)CN=C3NS(=O)(=O)C(c4ccc(C)cc4)=C3C)CC2)cc1", "Potency": "inconclusive [inhibitor, partial curve, poor fit]"}
{"molecule": "C/C(=N\\NS(=O)(=O)c1ccccc1)c1cc(Cl)cc(Cl)c1O", "Potency": "inactive"}
{"molecule": "COc1ccc(NC(=O)c2ccc(F)c(F)c2)c2ccccc12", "Potency": "inconclusive [inhibitor, partial curve, poor fit]"}
{"molecule": "CCCN1CC=C2C(C#N)=C(N)C(C#N)(C#N)C(c3cccc(OC)c3OC)C2C1", "note": "(stereo unspecified)", "Potency": "inactive"}
{"molecule": "COc1ccc(N2CCN(C(c3ccccc3)c3nnnn3Cc3ccc(F)cc3)CC2)cc1", "note": "(stereo unspecified)", "Potency": "inactive"}
{"molecule": "COc1ccc(C(O)c2coc3ccc(O)c(CN(C)C)c23)cc1", "note": "(stereo unspecified)", "Potency": "inconclusive [inhibitor, full curve]"}
{"molecule": "Cc1cc(C)c2[nH]c(=O)c(CN(Cc3ccc4c(c3)OCO4)Cc3nnnn3C3CCCC3)cc2c1", "Potency": "inconclusive [inhibitor, full curve, poor fit]"}
{"molecule": "COc1cc(S(=O)(=O)N2CCN(c3ccccn3)CC2)ccc1Br", "Potency": "inconclusive [inhibitor, full curve, poor fit]"}
{"molecule": "Cc1cc(C)c2c(=O)cc(C(=O)Nc3ccc(C)c(Cl)c3)oc2c1", "Potency": "inactive"}
{"molecule": "CCOc1ccc2nc(NC(=O)C3CCCN(S(=O)(=O)c4cccs4)C3)sc2c1", "note": "(stereo unspecified)", "Potency": "inconclusive [inhibitor, single point]"}
{"molecule": "Cc1ccc(NC(=O)CN(C)c2ccc(S(=O)(=O)N3CCN(C)CC3)cn2)cc1", "Potency": "inconclusive [inhibitor, partial curve, poor fit]"}
{"molecule": "c1coc(CN(Cc2cccs2)Cc2nnnn2C2CCCCC2)c1", "Potency": "inconclusive [inhibitor, single point]"}
{"molecule": "O=C(O)c1cn(Cc2ccccc2)nc1-c1cccnc1", "Potency": "inconclusive [inhibitor, full curve, poor fit]"}
{"molecule": "COc1ccc(NC(=O)CN(C)C(=O)CSCC(=O)Nc2ccc(C)cc2)cc1", "Potency": "inconclusive [inhibitor, partial curve]"}
{"molecule": "O=C(NCc1ccco1)c1ccccc1", "Potency": "inconclusive [inhibitor, partial curve]"}
{"molecule": "CCOc1ccc(C(=O)Nc2nnc(S(=O)(=O)N3CCCCC3)s2)cc1", "Potency": "inactive"}
{"molecule": "C=CCn1c(C)cc(C(=O)CSc2n[nH]c(N)n2)c1C", "Potency": "inconclusive [inhibitor, partial curve, poor fit]"}
{"molecule": "CC(C)(C)c1ccc(-c2noc(CCC(=O)NCC3CCCO3)n2)cc1", "note": "(stereo unspecified)", "Potency": "inconclusive [inhibitor, partial curve, poor fit]"}
{"molecule": "O=C1CCN(Cc2ccc(O)cc2)CCN1CCO", "Potency": "inconclusive [inhibitor, partial curve, poor fit]"}
{"molecule": "CC(=O)n1cc(C(C[N+](=O)[O-])SCCN)c2ccccc21", "note": "(stereo unspecified)", "Potency": "inactive"}
{"molecule": "O=C(NCCC1=CCCCC1)C1CCN(c2nc3ccccc3o2)CC1", "Potency": "inconclusive [inhibitor, full curve, poor fit]"}
{"molecule": "O=C(N/N=C\\c1ccccc1)c1ccccc1-n1cccc1", "Potency": "inconclusive [inhibitor, partial curve, poor fit]"}
{"molecule": "COc1ccccc1OC(C)C(=O)N(Cc1ccco1)C1CCS(=O)(=O)C1", "note": "(stereo unspecified)", "Potency": "inconclusive [inhibitor, partial curve, poor fit]"}
{"molecule": "O=P(O)(CCc1ccccn1)CN1CCCCC1", "Potency": "inconclusive [inhibitor, full curve, poor fit]"}
{"molecule": "Cn1c(C(=O)O)c(CC(=O)N2CCC(Cc3ccccc3)CC2)c2ccccc21", "Potency": "inconclusive [inhibitor, full curve, poor fit]"}
{"molecule": "O=C(O)c1ccc2c(c1)C(=O)N(N1C(=O)c3ccccc3C1=O)C2=O", "Potency": "inconclusive [inhibitor, partial curve, poor fit]"}
{"molecule": "COc1cccc(OC)c1C(=O)NC(=S)N1CCCCC1c1cccnc1", "note": "(stereo unspecified)", "Potency": "inconclusive [inhibitor, single point]"}
{"molecule": "CC(C)NC(=O)COc1coc(CN2CCN(c3ccccc3)CC2)cc1=O", "Potency": "inconclusive [inhibitor, single point]"}
{"molecule": "COCCn1c(=NC(=O)/C=C/c2ccccc2)sc2cc(NC(C)=O)ccc21", "Potency": "inconclusive [inhibitor, full curve, poor fit]"}
{"molecule": "CC(SCc1ccccc1)C(=O)N/N=C/c1ccc2c(c1)OCO2", "note": "(stereo unspecified)", "Potency": "inactive"}
{"molecule": "CCSc1nnc(N2C(=O)C(O)=C(C(=O)c3ccco3)C2c2cccc(OC)c2)s1", "note": "(stereo unspecified)", "Potency": "inactive"}
{"molecule": "O=C(CSc1nc2ccccc2n1Cc1ccc(F)cc1)N1CCN(c2ccc(F)cc2)CC1", "Potency": "inactive"}
{"molecule": "CCc1cccc(C)c1NC(=O)c1cc(S(=O)(=O)N(C)Cc2ccccc2)ccc1F", "Potency": "inactive"}
{"molecule": "O=C(COC(=O)C1CC2C=CC1C2)Nc1ccccc1", "note": "(stereo unspecified)", "Potency": "inconclusive [inhibitor, single point]"}
{"molecule": "Cc1ccc2cccc(OCC(=O)NCc3ccco3)c2n1", "Potency": "inactive"}
{"molecule": "CCOC(=O)N1CCC(NC(=O)c2cc(C)c3c(C)nn(-c4ccccc4)c3n2)CC1", "Potency": "inconclusive [inhibitor, full curve, poor fit]"}
{"molecule": "CCc1ccc(-c2cc(C)no2)cc1S(=O)(=O)Nc1cc(C)on1", "Potency": "inconclusive [inhibitor, full curve, poor fit]"}
{"molecule": "CCOC(=O)c1sc2nc3n(c(=O)c2c1C)CCC(C)CC3", "note": "(stereo unspecified)", "Potency": "inconclusive [inhibitor, partial curve, poor fit]"}
{"molecule": "CCN(Cc1ccccc1)C(=O)CS(=O)(=O)c1ccccc1", "Potency": "inactive"}
{"molecule": "CCCN(C(=O)c1cc(C)ccc1C)c1c(N)n(Cc2ccccc2)c(=O)[nH]c1=O", "Potency": "inconclusive [inhibitor, full curve]"}
{"molecule": "O=C(NCc1nnc(SCC(=O)N2CCN(c3ccccc3)CC2)o1)c1ccco1", "Potency": "inconclusive [inhibitor, full curve, poor fit]"}
{"molecule": "Cc1onc(-c2ccccc2)c1C(=O)NC(=S)NNC(=O)c1ccc(O)cc1", "Potency": "inactive"}
{"molecule": "C=CCSC1=N/C(=C/c2ccsc2)C(=O)N1c1ccccc1", "Potency": "inconclusive [inhibitor, full curve, poor fit]"}
